Test results as given in the supplement of paper PMC7125110.
± gives the standard error. Variants at the floor of the assay are shown more often than the library holds them.

B1: glmS ribozyme (parent)
chain: AUAAAAGCGCCAGAACUACAGAAAUGUAGUUGACGAGGAGGAGGUUUAUCGAAUUUUCGGCGGAUGCCUCCAAA

Key:
Details in all cases: with glucosamine-6-phosphate
glucosamine-6-phosphate [1] = variants of: B1; experiment: self-cleavage kobs at 40 uM GlcN6P; higher = faster cleavage; RNA array
In short: (§1)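 The measurements used barcoded ribozyme variants on sequenced MiSeq chips, transcribed in situ by E. coli RNA polymerase and tracked at 37 °C with a hybridised Cy3 probe. Glucosamine-6-phosphate, 40 μM to 10 mM in HEPES/KCl/Mg(OAc)2 buffer, was flowed in while tiles were imaged over ~14 h. Baseline-normalised signals, also normalised to non-cleaving reference variants, gave per-tile medians that were fit to one- or two-exponential decays for kobs. kcat and KM resulted from weighted Michaelis–Menten fits across concentrations.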

glucosamine-6-phosphate [2] = variants of: B1; experiment: self-cleavage kobs at 640 uM GlcN6P; higher = faster cleavage; RNA array
In short: as §1

glucosamine-6-phosphate [3] = variants of: B1; experiment: self-cleavage kobs at 160 uM GlcN6P; higher = faster cleavage; RNA array
In short: as §1

glucosamine-6-phosphate [4] = variants of: B1; experiment: self-cleavage kobs at 2500 uM GlcN6P; higher = faster cleavage; RNA array
In short: as §1

glucosamine-6-phosphate [5] = variants of: B1; experiment: self-cleavage kobs at 10000 uM GlcN6P; higher = faster cleavage; RNA array
In short: as §1

Row | Variant | self-cleavage kobs at 40 uM GlcN6P (glucosamine-6-phosphate [1]) [s⁻¹] | self-cleavage kobs at 640 uM GlcN6P (glucosamine-6-phosphate [2]) [s⁻¹] | self-cleavage kobs at 160 uM GlcN6P (glucosamine-6-phosphate [3]) [s⁻¹] | self-cleavage kobs at 2500 uM GlcN6P (glucosamine-6-phosphate [4]) [s⁻¹] | self-cleavage kobs at 10000 uM GlcN6P (glucosamine-6-phosphate [5]) [s⁻¹]
1 | AUAAAUGCGCCAGAACUACAGAAAUGUAGUUGACGAGGAGGAGGUUUCUCGAAUUUUCGGCGGAUGCCUCCAAA [A6U A48C] | < 1e-05 | < 1e-05 | < 1e-05 | < 1e-05 | < 1e-05
2 | AUAAAUGGGCCAGAACUACAGAAAUGUAGUUGACGAGGAGGUGGUUUAUCGAAUUUUCGGGGGAUGCCUCCAAA [A6U C8G A42U C61G] | < 1e-05 | < 1e-05 | < 1e-05 | < 1e-05 | < 1e-05
3 | AUAAAUGCGCCAGAAGUACAGAAAUGUAGUUGACGAGGAGGAGGUUUAUCGAAUUUUCGGCGGAGGCCUCCAAA [A6U C16G U65G] | < 1e-05 |  | < 1e-05 | < 1e-05 | 
4 | AUAAAUGCGCUAGAACUACAGAAAUGUAGUUUACGAGGAGGAGGUUUAUCGAAUUUUCGGCGGAUGCCUCCAAA [A6U C11U G32U] | < 1e-05 |  |  |  | < 1e-05
5 | AUAAAUGCGCCAGAACUACAGAAAUGUAGUUGACGAGGAGGAGGUUUGUCCAAUUUUCCGCGGAUGCCUCCAAA [A6U A48G G51C G59C] | < 1e-05 |  |  |  | 
6 | AUAAAUGCGCCCGAACUACAGAAAUGUAGUUGACGAGGAGGAGGAUUAUCGCAUUUUCGGCGGAUGCCUCCAAA [A6U A12C U45A A52C] | < 1e-05 |  |  |  | 
7 | AUAAAGGCGCCAGAACUACAGAAAUGUAGUUGACGAGGAGGAGGUUUAUCGAAUUUUCGGCGGAUCCCUCCAAA [A6G G66C] | < 1e-05 | < 1e-05 | < 1e-05 |  | < 1e-05
8 | AUAAAUUCGCCAGAACUACAGAAAUGUAGUUGACGAGGAGGAGGUGUAUCGAAUUGUCGGCGGAAGCCUCCAAA [A6U G7U U46G U56G U65A] | < 1e-05 |  |  |  | 
9 | AUAAAGGCGCCAGAACUACAGAAAUGUAGUUGACGAGGAGGAGGUUUAUCGAAUUUUCGGCGGAAGCCUCCAAA [A6G U65A] | < 1e-05 |  |  | 4.41e-05 ± 1.2e-05 | 6.05e-05 ± 9.8e-06
10 | AUAAAGGCGCCAGAACUACAGAAAUGUAGUUGACGAGGAGGAGGUUUAUCGAAUUUUCGGCGGAGGCCUCCAAA [A6G U65G] | < 1e-05 |  |  |  | 
11 | AUAAAUGCGCCAGAACUACAGAAAUGUAGUUGACGAGGAGGAGGUUUAUCGUAUUUUCGGAGGAUGCCUCCAAA [A6U A52U C61A] | < 1e-05 |  |  |  | 
12 | AUAAAUGCGCCAGAGCUACAGAAAUGUAGUUGACGAGGAGGAGGUUUACCAAAUUUUCGGCGGAUGCCUCCAAA [A6U A15G U49C G51A] | < 1e-05 |  |  | < 1e-05 | 
13 | AUAAAUGCGCCGGAACUACAGAAAUGUAGUUGACGAGGAGGAUGUUUAUCGAAUUUUCGGCGGAUGCCUCCAAA [A6U A12G G43U] | < 1e-05 |  |  |  | 
14 | AUAAAGGCGCCAGAACUACAGAAAUGUAGCUGACGAGGAGGAGGUUUAUCGAAUUUUCGGCGGAUGCCUACAAA [A6G U30C C70A] | < 1e-05 |  |  |  | < 1e-05
15 | AUAAAUGCGCCAGAACUACAGAAAUGUAGUUGACGAGGAGGAGGUUUAUCGUAUUUUCGGCGGCUGCCUCGAAA [A6U A52U A64C C71G] | < 1e-05 |  |  |  | < 1e-05
16 | AUAAAUACGCCAGAACUACAGAAAUGUAGUUGUCGAGGAGGAGGUUUAUCGAAUUUUCGGCGGAUGCCUCCAAA [A6U G7A A33U] | < 1e-05 |  |  |  | < 1e-05
17 | AUAAAUGGGCCAGAAUUACAGAAAUGUAGUUGACGAGGAGGAGGUUUAUCGAAUAUUCGGCGGAUGCCUCCAAA [A6U C8G C16U U55A] | < 1e-05 |  |  |  | 
